Test results reported in patent US20260200997A1, “AFFINITY AGENTS” (Repligen Corporation, priority 2022, published 2026).

Target: T1, Haptoglobin protein (Homo sapiens, UniProt P00738)
T1 sequence (P00738 162-406 limits assumed): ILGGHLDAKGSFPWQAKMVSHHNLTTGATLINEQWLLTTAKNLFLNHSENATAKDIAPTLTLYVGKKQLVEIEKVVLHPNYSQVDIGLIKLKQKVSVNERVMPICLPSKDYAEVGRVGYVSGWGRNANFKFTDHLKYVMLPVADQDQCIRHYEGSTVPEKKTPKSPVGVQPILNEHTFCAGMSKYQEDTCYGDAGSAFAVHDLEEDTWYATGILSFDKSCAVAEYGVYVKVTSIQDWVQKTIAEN
T1 sequence (P00738 19-160 limits assumed): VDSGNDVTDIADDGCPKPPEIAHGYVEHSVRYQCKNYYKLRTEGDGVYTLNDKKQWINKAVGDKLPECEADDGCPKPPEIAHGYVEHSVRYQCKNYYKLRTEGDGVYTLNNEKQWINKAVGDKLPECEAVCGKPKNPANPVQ
Assay: Dynamic binding capacity of packed affinity resin column
Conditions: resin from ligand, 0.3×10 cm column, 1 mg/mL haptoglobin in PBS, 10% breakthrough, FIG. 4
Experimental: Haptoglobin protein was diluted to a concentration of 1 mg/mL in PBS. A resin prepared from the ligand corresponding to SEQ ID NO. 118 was packed into a column. A 0.3×10 cm (0.707 mL) column was operated according to the following table.
To evaluate the effect of residence time on dynamic binding capacity the linear velocity of the load solution was varied. Distinct dynamic binding capacity measurements were made using a linear velocity of 75 cm/hr (8-minute residence time), 100 cm/hr (6-minute residence time), 150 cm/hr (4-minute residence time), and 300 cm/hr (2-minute residence time).
The materials were analyzed by measuring absorbance of each effluent fraction compared to the absorbance of the load solution. The aggregate mass of haptoglobin challenge at the point when the effluent measures 10% of the load solution is reported as the dynamic binding capacity of the resin. The data is shown in FIG. 4 for an exemplary affinity resin produced from the affinity ligand corresponding to SEQ ID NO.

B1: MVDAKFDKELEEARAEIERLPNLTEEQRRNFIQALRDDPSSSAGLLALAKHWNDKQAPKVDAKFDKELEEARAEIERLPNLTEEQRRNFIQALRDDPSSSAGLLALAKHWNDKQAPKVDAKFDKELEEARAEIERLPNLTEEQRRNFIQALRDDPSSSAGLLALAKHWNDKQAPKAAAHHHHHHC (protein)
chain: MVDAKFDKELEEARAEIERLPNLTEEQRRNFIQALRDDPSSSAGLLALAKHWNDKQAPKVDAKFDKELEEARAEIERLPNLTEEQRRNFIQALRDDPSSSAGLLALAKHWNDKQAPKVDAKFDKELEEARAEIERLPNLTEEQRRNFIQALRDDPSSSAGLLALAKHWNDKQAPKAAAHHHHHHC
Q: B1 was tested. Which “Dynamic binding capacity of the resin on increasing the residence time to 8 minutes” value (8-minute residence time (75 cm/hr)) did it give?
A: did not increase binding capacity

Q: What about the “Dynamic binding capacity of the resin versus residence time” value (residence time 2-6 minutes) of the same molecule?
A: increases with increased residence time over the range of 2-6 minutes
